The values that follow come from the antibiotic and cytotoxicity screens of Wong et al. (2023).

The list shows a part of the results.

The subject of test [1] is HSkMC (human skeletal muscle cells). The test can be described thus: cytotoxicity call (relative viability < 0.9). Conditions: 10 µM.
Test [2] deals with HepG2. Briefly: cytotoxicity call (relative viability < 0.9). The note with it: 10 µM.
For test [3], the system named is S. aureus RN4220. The test can be described thus: growth inhibition call (relative growth <= 0.2). The note with it: 50 µM.

In the case of `C[C@@H]1CN([C@H](C)CO)S(=O)(=O)c2ccc(C#Cc3ccncc3)cc2O[C@@H]1CN(C)S(=O)(=O)c1ccc(F)cc1`, the cytotoxicity call in test [1] is “inactive”. Further, in test [2], the cytotoxicity call was “active”. Moreover, the growth inhibition call in test [3] is “inactive”.

As to `C[C@H](CO)N1C[C@H](C)[C@H](CN(C)S(=O)(=O)c2cn(C)cn2)Oc2ccc(NC(=O)NC3CCCCC3)cc2C1=O`, the cytotoxicity call in test [1] and in test [2] was “inactive” each time. For the same molecule, in test [3], the growth inhibition call was “inactive”.

Consider `CN(C)CC(=O)N[C@H]1CC[C@H](CC(=O)NCCN2CCCCC2)O[C@@H]1CO`, for which the cytotoxicity call in test [1] and in test [2] was “inactive” in each case. Moreover, the growth inhibition call in test [3] is “inactive”.

Consider `NC(=O)NCC#Cc1ccc2c(c1)[C@]1(C(=O)N2)[C@H](C(=O)N2CCCCCCC2)[C@H]2C(=O)O[C@H](c3ccccc3)[C@H](c3ccccc3)N2[C@@H]1c1ccc(O)cc1`, for which the cytotoxicity call in test [1] and in test [2] was “inactive” in each case. In addition, the growth inhibition call in test [3] was “inactive”.

`O=C(N/N=C/c1ccc(CO)o1)c1ccccn1`: the cytotoxicity call in test [1] and in test [2] was “inactive” in each case. The growth inhibition call in test [3] was “inactive”.

Take `C[C@@H]1CCCCO[C@H](CN(C)C(=O)c2ccncc2)[C@H](C)CN([C@@H](C)CO)C(=O)c2cc(NS(C)(=O)=O)ccc2O1`: the cytotoxicity call in test [1] and in test [2] was “inactive” throughout. In addition, the growth inhibition call in test [3] was “inactive”.

On to `Cc1ccc(S(=O)(=O)Nc2ccc3c(c2)C(=O)N([C@H](C)CO)C[C@H](C)[C@@H](CN(C)Cc2ccc4c(c2)OCO4)OCCCC[C@H](C)O3)cc1`, for which the cytotoxicity call in test [1] and in test [2] was “inactive” each time. The growth inhibition call in test [3] was “inactive”.

Consider `O=C(C[C@H]1CC[C@H]2[C@@H](COC[C@@H](O)CN2S(=O)(=O)c2ccc(F)cc2)O1)NCc1ccc(Cl)c(Cl)c1`, for which the cytotoxicity call in test [1] and in test [2] was “inactive” throughout. For the same molecule, in test [3], the growth inhibition call is “inactive”.

`C[C@H](CO)N1C[C@H](C)[C@@H](CN(C)C(=O)c2ccc(F)cc2)OCc2ccccc2-c2c(n(C)c3ccccc23)C1=O`: the cytotoxicity call in test [1] and in test [2] was “inactive” throughout. Besides, the growth inhibition call in test [3] is “inactive”.

With `COc1ccc(NC(=O)N(C)C[C@H]2OCCCC[C@@H](C)Oc3ccc(NC(=O)Nc4c(C)noc4C)cc3C(=O)N([C@H](C)CO)C[C@@H]2C)cc1`, the cytotoxicity call in test [1] and in test [2] was “inactive” throughout. Moreover, in test [3], the growth inhibition call is “inactive”.

On to `C[C@@H]1CN([C@@H](C)CO)C(=O)Cc2cc(NC(=O)Cn3cnnn3)ccc2O[C@@H]1CN(C)Cc1ccc(C(=O)O)cc1`, for which the cytotoxicity call in test [1] and in test [2] was “inactive” throughout. In addition, in test [3], the growth inhibition call is “inactive”.

Turning to `C[C@H]1CN([C@@H](C)CO)C(=O)c2cccc(NS(=O)(=O)c3ccccc3)c2O[C@H]1CN(C)Cc1ccc(Cl)c(Cl)c1`, the cytotoxicity call in test [1] and in test [2] was “inactive” in each case. Also, the growth inhibition call in test [3] is “inactive”.

For `COc1cccc(S(=O)(=O)Nc2ccc3c(c2)[C@@H]2C[C@@H](CC(=O)NCCc4ccccc4)O[C@H](CO)[C@@H]2O3)c1`, the cytotoxicity call in test [1] and in test [2] was “inactive” each time. The growth inhibition call in test [3] was “inactive”.

As to `C[C@H]1CN([C@@H](C)CO)C(=O)c2cc(C#Cc3cccc(F)c3)cnc2O[C@@H]1CN(C)CC1CCOCC1`, the cytotoxicity call in test [1] and in test [2] was “inactive” in each case. Moreover, the growth inhibition call in test [3] is “inactive”.

Turning to `CCCCc1oc2ccc(NS(C)(=O)=O)cc2c1C(=O)c1ccc(OCCCN(CCCC)CCCC)cc1`, the cytotoxicity call in test [1] and in test [2] was “active” in each case. In addition, in test [3], the growth inhibition call was “active”.

As to `CC(C)NC(=O)Nc1ccc2c(c1)C(=O)N([C@@H](C)CO)C[C@@H](C)[C@@H](CN(C)Cc1ccc(Cl)c(Cl)c1)OCCCC[C@@H](C)O2`, the cytotoxicity call in test [1] and in test [2] was “inactive” each time. In addition, the growth inhibition call in test [3] was “inactive”.

With `O=C1O[C@@H](c2ccccc2)[C@@H](c2ccccc2)N2[C@@H](c3ccc(O)cc3)[C@]3(C(=O)Nc4ccc(C#CC5=CCCCC5)cc43)[C@@H](C(=O)N3CCCCCCC3)[C@H]12`, the cytotoxicity call in test [1] and in test [2] was “inactive” in each case. Also, the growth inhibition call in test [3] was “inactive”.

With `O=C(NCC[C@@H]1CC[C@H](NS(=O)(=O)c2cccc(F)c2)[C@H](CO)O1)C1CC1`, the cytotoxicity call in test [1] and in test [2] was “inactive” throughout. Further, in test [3], the growth inhibition call is “inactive”.

As for `Cc1noc(C)c1NC(=O)Nc1ccc2c(c1)CC(=O)N([C@@H](C)CO)C[C@H](C)[C@@H](CN(C)S(=O)(=O)c1ccccc1)O2`, the cytotoxicity call in test [1] and in test [2] was “inactive” each time. Further, the growth inhibition call in test [3] is “inactive”.

For the molecule `C[C@@H]1CN([C@@H](C)CO)C(=O)c2c(c3ccccc3n2C)-c2ccccc2CO[C@@H]1CN(C)C(=O)c1cc(Cl)cc(Cl)c1`, the cytotoxicity call in test [1] was “inactive”. For the same molecule, the cytotoxicity call in test [2] is “active”. Besides, the growth inhibition call in test [3] is “inactive”.

For `C[C@@H]1CN([C@@H](C)CO)C(=O)c2cc(-c3cncnc3)cnc2O[C@@H]1CN(C)C(=O)Nc1ccc2c(c1)OCO2`, the cytotoxicity call in test [1] and in test [2] was “inactive” in each case. Besides, in test [3], the growth inhibition call was “inactive”.

As to `Cc1noc(C)c1NC(=O)N(C)C[C@H]1Oc2ccc(NS(=O)(=O)c3cn(C)cn3)cc2C(=O)N([C@@H](C)CO)C[C@@H]1C`, the cytotoxicity call in test [1] and in test [2] was “inactive” in each case. Further, in test [3], the growth inhibition call was “inactive”.

As for `CC(Cc1ccc(O)c(O)c1)C(C)Cc1ccc(O)c(O)c1` (stereo not drawn), the cytotoxicity call in test [1] and in test [2] was “inactive” each time. The growth inhibition call in test [3] was “inactive”.

With `C[C@@H]1CCCCO[C@H](CN(C)C(=O)CCC(F)(F)F)[C@@H](C)CN([C@@H](C)CO)C(=O)c2cc(NC(=O)CCC(F)(F)F)ccc2O1`, the cytotoxicity call in test [1] and in test [2] was “inactive” in each case. For the same molecule, in test [3], the growth inhibition call was “inactive”.

Consider `COCC#Cc1cnc2c(c1)C(=O)N([C@H](C)CO)C[C@@H](C)[C@H](CN(C)C(=O)CN1CCOCC1)O2`, for which the cytotoxicity call in test [1] and in test [2] was “inactive” throughout. Further, the growth inhibition call in test [3] was “inactive”.

For the molecule `COc1ccc(NC(=O)O[C@H]2[C@H](OC(=O)Nc3ccccc3-c3ccccc3)[C@H](OC(=O)Nc3ccccc3-c3ccccc3)[C@@H](OC)O[C@@H]2CO)cc1`, the cytotoxicity call in test [1] and in test [2] was “inactive” in each case. In addition, in test [3], the growth inhibition call is “inactive”.
